Source: PubChem BioAssay AID624417 (National Center for Advancing Translational Sciences (NCATS), 2012)
The whole screen tested about 410,000 compounds, of which about 6,400 (1.6%) were called active. Inconclusive means that the source gave no clear call. Such entries were picked first, then a sample of the others. Calls follow the shape of the dose curve; as a rule, active = well fitted inhibition curve with a large enough effect; inconclusive = small, poorly fitted or top-dose-only effect; inactive = no such curve, though single readings can be large or run the other way. A potency beside an inconclusive call is a rough fit, not a confirmed value.

target: Glucagon-like peptide 1 receptor (Homo sapiens) (UniProt P43220); test: qHTS of GLP-1 Receptor Inverse Agonists (Inhibition Mode); details: HEK293 GLP-1R CRE-luciferase, luminescence, 24 h, GLP-1R form is constitutively active; series mostly up to 38.3 µM; also: nearly all actives have a fitted effect of over 55% in size
Sequence of UniProt P43220 (P43220 whole entry, looked up): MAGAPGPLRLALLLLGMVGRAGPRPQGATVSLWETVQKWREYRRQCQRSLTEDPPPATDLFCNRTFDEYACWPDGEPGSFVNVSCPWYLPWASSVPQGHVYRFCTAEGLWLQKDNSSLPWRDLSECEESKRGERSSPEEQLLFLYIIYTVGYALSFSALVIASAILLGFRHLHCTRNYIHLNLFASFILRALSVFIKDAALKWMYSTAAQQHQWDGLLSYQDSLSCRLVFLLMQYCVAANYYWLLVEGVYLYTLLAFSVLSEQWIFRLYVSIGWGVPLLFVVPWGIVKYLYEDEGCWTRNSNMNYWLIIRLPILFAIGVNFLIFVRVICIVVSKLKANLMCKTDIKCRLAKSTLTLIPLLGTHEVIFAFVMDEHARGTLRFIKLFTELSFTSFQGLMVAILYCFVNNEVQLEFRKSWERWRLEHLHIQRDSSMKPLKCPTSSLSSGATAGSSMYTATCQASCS
Method in brief: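 qHTS in 1536-well format: reporter HEK293 cells expressing constitutive GLP-1R activity in DMEM + 10% Nu serum, 24 hr with compounds at 37 deg C, luminescence read after 12 min with detection reagent.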
Potency is read from the fitted curve at half-maximal effect; tags tell the direction and shape of the fitted curve.

Potency, inconclusive:
CCc1nc2ccc(C(=O)NCc3ccccc3OC)cn2c1N(CCC(C)C)CCN(C)C 10 µM [inhibitor, partial curve]
COC(=O)[C@]12CCCCC=C1N(Cc1cccc3ccccc13)C(=O)[C@H](CC(=O)NCC13CC4CC(CC(C4)C1)C3)C2 31.6 µM [inhibitor, partial curve, poor fit]
CN1CCN(C2=Nc3c(Cl)cc(Cl)c4cccc2c34)CC1 25.1 µM [inhibitor, single point]
CCOC(=O)C1(S(=O)(=O)c2ccccc2)CCN(Cc2ccc(Cl)cc2)CC1 28.2 µM [inhibitor, single point]
Cc1ccc(O)c(NC(=O)c2cccc(S(=O)(=O)N3CCCCC3)c2)c1 10 µM [inhibitor, single point]
Cc1c(NC(=O)/C=C/c2cn(-c3ccccc3)nc2-c2ccc(F)cc2)c(=O)n(-c2ccccc2)n1C 1.58 µM [inhibitor, full curve, poor fit]
CC(=O)c1ccc(-n2c(C)ccc2-c2ccccc2)cc1 7.08 µM [inhibitor, partial curve, poor fit]
CCCn1c(SCC(=O)N2c3ccccc3CC2C)nnc1-c1ccco1 (stereo not given) 10 µM [inhibitor, single point]
COc1ccc2c(c1)c(C)cc[n+]2Cc1ccccc1 10 µM [inhibitor, single point]
CC(C)C[C@@H](CO)NC(=O)CC[C@H](NC(=O)OC(C)(C)C)C(=O)N(Cc1ccccc1)Cc1ccccc1 10 µM [inhibitor, partial curve, poor fit]
CC1Cc2ccccc2N1C(=O)CO/N=C/c1ccc(OC(F)F)cc1 (stereo not given) 11.2 µM [inhibitor, single point]
CC(=O)N1CCN(c2ccc(Oc3ccc([N+](=O)[O-])c(C(F)(F)F)c3)cc2)CC1 10 µM [inhibitor, partial curve, poor fit]
CC(C)Cc1nnc(NC(=O)CCC(=O)N2CCN(c3ccc(F)cc3)CC2)s1 6.31 µM [inhibitor, partial curve]
CC(CCc1ccccc1)NC(=O)CCC1CCCC1 (stereo not given) 12.6 µM [inhibitor, single point]
COc1ccccc1NC(=O)CN1CCN(c2ccccc2OC)CC1 28.2 µM [inhibitor, single point]
COc1ccc(N(CC(=O)NCc2ccccc2Cl)S(=O)(=O)c2c(C)noc2C)cc1 7.94 µM [inhibitor, partial curve, poor fit]
N#Cc1c(-c2ccccc2)c(-c2ccccc2)nn(CC(=O)NNC(=O)Nc2ccccc2)c1=O 10 µM [inhibitor, partial curve, poor fit]
C=CCN(Cc1ccc(Cl)s1)C(=O)CNC(=O)CNC(=O)c1ccc(Cl)cc1Cl 10 µM [inhibitor, partial curve, poor fit]
CCN(CC)Cc1c(O)ccc2occ(C(=O)c3ccc(OC)cc3)c12 11.2 µM [inhibitor, single point]
COC(=O)N/N=C/c1cn(CCOc2ccc(OC)cc2)c2ccccc12 7.94 µM [inhibitor, partial curve]
CC(=O)Nc1cccc(OCCCNC(=O)c2ccc(C(C)(C)C)cc2)c1 11.2 µM [inhibitor, partial curve, poor fit]
CC12CCC(=O)N1C(C(=O)Nc1cc(C(F)(F)F)ccc1N1CCCCC1)CS2 (stereo not given) 20 µM [inhibitor, single point]
CCC(=Nc1ccccc1O)C1=C(O)CC(c2ccccc2)CC1=O (stereo not given) 10 µM [inhibitor, partial curve]
CCOc1ccc(C(C(=O)NC2CCCC2)N(C(=O)c2snc(C(N)=O)c2N)c2cccc(O)c2)cc1 (stereo not given) 10 µM [inhibitor, partial curve, poor fit]
O=C(CNCc1ccccc1Cl)Nc1ccccc1N1CCCCC1 11.2 µM [inhibitor, partial curve, poor fit]
CN1C(=O)Cc2cc(S(=O)(=O)CCC(=O)N3CCN(c4ccccc4F)CC3)ccc21 3.16 µM [inhibitor, partial curve, poor fit]
CN(C)CCCOc1ccc2c(c1)Sc1ccccc1CC2=O 7.94 µM [inhibitor, partial curve, poor fit]
O=C1NC(=S)SC1=Cc1ccccc1Br 10 µM [inhibitor, partial curve]
Cc1ccc(Cl)cc1N1CCN(C(=O)Cc2ccc(-n3c(=O)[nH]c4ccsc4c3=O)cc2)CC1 20 µM [inhibitor, single point]
Cc1ccc(OC(=O)c2cccc(S(=O)(=O)N(C)C)c2)c(-n2nc3ccccc3n2)c1 28.2 µM [inhibitor, single point]
Nc1ncc(Br)cc1S(=O)(=O)NC1CCCCC1 28.2 µM [inhibitor, single point]
CCN(CC(=O)Nc1ccccc1C(=O)OC)S(=O)(=O)c1ccc(OC)cc1 5.62 µM [inhibitor, full curve]
CCOc1nc(-c2ccccc2)ncc1Oc1ccccc1 10 µM [inhibitor, partial curve, poor fit]
CN1CCN(C(=O)CCN2C(=O)/C(=C\c3ccccc3F)SC2=S)CC1 28.2 µM [inhibitor, single point]
COc1cccc(CNC(=O)Cn2ccc3cc(S(=O)(=O)N4CCCCCC4)ccc32)c1 14.1 µM [inhibitor, single point]
Cc1ccc2c(c1)C(c1ccc(F)cc1)N(C(=O)c1ccccc1Br)CC(=O)N2 (stereo not given) 7.94 µM [inhibitor, partial curve, poor fit]
Cc1ccc(-c2nnc(SCC(=O)N(C)C)nc2-c2ccc(C)cc2)cc1 10 µM [inhibitor, single point]
COc1ccc(S(=O)(=O)N2CCN(C(=O)c3oc4ccccc4c3C)CC2)cc1 20 µM [inhibitor, single point]
O=C(COC(=O)/C=C/c1ccccc1[N+](=O)[O-])Nc1ccc2[nH]c(=O)[nH]c2c1 7.08 µM [inhibitor, partial curve]
COc1ccc(/C=N/OC(=O)Nc2ccccc2OC)cc1 8.91 µM [inhibitor, partial curve, poor fit]
COc1ccc([C@H]2CC(=O)C=C(c3ccc(OC(F)(F)F)cc3)C2)cc1OC 28.2 µM [inhibitor, single point]
CCC(C)NCC(=O)Nc1cc(S(=O)(=O)N(CC)c2ccccc2)ccc1Cl (stereo not given) 5.62 µM [inhibitor, partial curve, poor fit]
Cc1ccc(C)c(C(=O)CN2C(=O)NC3(CCc4ccccc43)C2=O)c1 (stereo not given) 28.2 µM [inhibitor, single point]
O=C(Nc1ccc2c(c1)OCO2)C1CCN(Cc2cnn(-c3ccccc3)c2-n2cccc2)CC1 3.55 µM [inhibitor, partial curve, poor fit]
Clc1ccc(OCc2cc(-c3ccccc3)no2)c(Cl)c1 28.2 µM [inhibitor, single point]
Cc1ccc(S(=O)(=O)Nc2ccc3c(c2)C(=O)N([C@H](C)CO)C[C@H](C)[C@@H](CN(C)C(=O)NC2CCCCC2)OCCCC[C@@H](C)O3)cc1 28.2 µM [inhibitor, single point]
Cc1ccccc1C(=O)NCC(c1ccco1)N1CCc2ccccc2C1 (stereo not given) 11.2 µM [inhibitor, single point]
COc1c(C)cc(C(=O)C2CCCN(C(=O)c3cc(C4CC4)[nH]n3)C2)cc1C (stereo not given) 28.2 µM [inhibitor, single point]
COc1ccc(-n2cc(-c3ccccc3)nc2SCC(=O)Nc2ccccc2)cc1Cl 10 µM [inhibitor, partial curve, poor fit]
O=C(c1ccco1)N1CCN(C(=O)c2cn(-c3ccccc3)nc2-c2ccc(F)cc2)CC1 28.2 µM [inhibitor, single point]
CCN(CC)CCCNC(=O)c1cc(-c2ccc3c(c2)OCO3)on1 3.55 µM [inhibitor, single point]

Potency, inactive:
c1csc(CSc2nc3ccccc3s2)c1
Cc1ccc(C(=O)N2CCNC(=O)C2CC(=O)Nc2ccc(F)cc2)cc1C (stereo not given)
CCc1nnc(N/N=C/c2cc(Br)c(O)cc2O)n1N
O=c1cc(CO)oc(C(Nc2ccccn2)c2ccccc2F)c1O (stereo not given)
O=C(CCN1CCN(c2ccccc2)CC1)NNC(=O)c1cccc2ccccc12
O=C(Nc1ccc(Cl)cn1)c1ccc2nccnc2c1
O=C(Nc1c2c(nn1-c1ccc(F)cc1)CS(=O)(=O)C2)c1ccc(S(=O)(=O)N2CCOCC2)cc1
CCc1ccc(S(=O)(=O)c2nnn3c2nc(N2CCCC2)c2sccc23)cc1
O=C(CCN1CCCCC1)c1ccc2c(c1)OCO2
